For 83 variants, self-cleavage results are on record in the RNAGym collection of RNA variant scans (doi:10.1093/nar/gkz1192).

Read counts are not given, so values of variants with three or more changes are uncertain.

The labels stand for the following.
B1: CPEB3 Ribozyme (parent)
chain: UAACAGGGGGCCACAGCAGAAGCGUUCACGUCGCAGCCCCUGUCAGAUUCUGGUGAAUCUGCGAAUUCUGCUGUAUAUCUC

This data set covers variants of B1. In words: self-cleavage, relative activity (ratio to wild type); higher = more cleavage; in vitro, sequencing. Put shortly: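 Relative activity was defined as the cleaved/total read fraction for a variant divided by the same fraction for the unmutated ribozyme. CPEB3 self-cleaving ribozyme libraries were made by rounds of error-prone PCR, barcoded, and transcribed in vitro with T7 RNA polymerase for 5 hours at 37°C, and cleavage ran through transcription plus a 15 min DNase I step before EDTA. Illumina sequencing of template-switched reverse transcripts gave the reads, and DNA sequencing mapped the barcodes. Averages come from three batches, using variants with at least 5 reads.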
As to G16U U25A A35G A75U C79G, the self-cleavage turned out to be 0.18.

In the case of A18C U43C U48C A65U, the self-cleavage was found to be 0.17.

As for A18G A20U U60A, the self-cleavage turned out to be 0.2.

On to C17A A35U A56G, for which the self-cleavage was determined as 0.17.

For C17A C34U A47G U51C, the self-cleavage stood at 0.35.

Take A18G A21C U26C U41A A56G U58C U69A: the self-cleavage was determined as 0.11.

On to C17U C23U U31A U51A, for which the self-cleavage was 0.1.

Take C17U U69C A77C: the self-cleavage was determined as 0.1.

As for G16U U25A A28U, the self-cleavage is 0.26.

With C17A G22A A56G U69C A75G U78C, the self-cleavage came out at 0.06.

Turning to A18G A20G A21U U48A A57G A64U U74A, the self-cleavage was 0.07.

For the variant C17A A21G A35G U54A U67C, the self-cleavage amounted to 0.05.

For A18G A20G G36C U43C U48C A64U U67C, the self-cleavage was found to be 0.23.

Consider C17U U51A A64G, for which the self-cleavage turned out to be 0.38.

On to A18G A21G G55A A65G, for which the self-cleavage is 0.12.

For the variant G16C U26C U49C A77U U78A, the self-cleavage turned out to be 0.27.

With C17U U41C A45G U58C, the self-cleavage amounted to 0.26.

On to A18C G53C U58C U74A, for which the self-cleavage was determined as 0.14.

On to A18C A20G U25C C38U C62A A65G U69G, for which the self-cleavage was found to be 0.1.

Take G16C U26C A45C U54A A57G: the self-cleavage worked out at 0.14.

Turning to C17G A18G A21G U31C U51A, the self-cleavage is 0.

C17U U48C U51G: the self-cleavage is 0.46.

For the variant C17U U41A U69C, the self-cleavage was 0.19.

Take G16U U41A U54A U67C: the self-cleavage was 0.06.

With A18G A20G U51C U54G U58C U78A, the self-cleavage turned out to be 0.1.

Turning to G16U A18U U25A A35U, the self-cleavage is 0.19.

In the case of G16C A21C A47U U60C, the self-cleavage came out at 0.27.

Take C17U U25C A57G U69C U74C: the self-cleavage was 0.32.

In the case of G16U A21G C38A, the self-cleavage stood at 0.45.

Take C17A U69C U72A: the self-cleavage was found to be 0.08.

On to G16U A21U A64U U76C, for which the self-cleavage worked out at 0.06.

Turning to C17U C23G A47G A57G, the self-cleavage amounted to 0.07.

With A18G A21G U51C G63U U72C U78C, the self-cleavage is 0.36.

For C17U U26C U43C A56G, the self-cleavage was found to be 0.12.

C17U A28G A35U U43C A77U: the self-cleavage came to 0.13.

In the case of C17G C23G U43C A65G U72C U80C, the self-cleavage was determined as 0.12.

With A18G A21G C23A A56G U66C, the self-cleavage was 0.1.

On to G16C U31G A45C U54C A75G, for which the self-cleavage came out at 0.06.

With C17A U26C C40U A57G, the self-cleavage is 0.26.

As for C17A A18U U26G U43C U49C U54C, the self-cleavage was found to be 0.14.

A18C A35G U72A: the self-cleavage was 0.15.

For the variant G16C U25A U41A U49C U66A, the self-cleavage is 0.22.

For A18C G52A U80A, the self-cleavage is 0.83.

As for C17U C37A U49C U60C, the self-cleavage was 0.07.

As to C17U U25C A47U U49C U54C U78A, the self-cleavage is 0.07.

C17U U54G A64U: the self-cleavage stood at 0.08.

Regarding A18G A21G U25C U41C U58C U74C, the self-cleavage came to 0.07.

As for A18G A21U A28G U41A C62U U80C, the self-cleavage turned out to be 0.05.

Take A18G A21G U74C: the self-cleavage stood at 0.66.

Turning to C17G A35G U41C A64U, the self-cleavage amounted to 0.08.

With A18C A21U U25C C29U U49C, the self-cleavage is 0.05.

For A18C G30C U43C A56U, the self-cleavage is 0.15.

Turning to A18C A47G A75U, the self-cleavage worked out at 0.19.

Regarding C17U C37U U41C, the self-cleavage was 0.51.

For the variant G16U U49C A56G U58C A64G, the self-cleavage was 0.1.

In the case of C17A G24A A35U A47G U80A, the self-cleavage turned out to be 0.06.

Turning to A18C A35G A45U U51C U69A, the self-cleavage came out at 0.26.

Consider G16A U51C G63C A64C, for which the self-cleavage is 0.13.

For the variant A18C U41A U66C U76C, the self-cleavage worked out at 0.08.

As for A18G A21G A65U C81U, the self-cleavage came out at 0.25.

In the case of A18C A45G U51A U54C U58C C81A, the self-cleavage came out at 0.12.

Take C17A A18C U31A: the self-cleavage came out at 0.09.

Consider C17G U41G U54C, for which the self-cleavage came out at 0.16.

With A18G A21G U26C C27A A28G U54C U69A, the self-cleavage came to 0.12.

For A18G A20U A35G G42A U67A, the self-cleavage came out at 0.43.

Turning to A18G A21G U51A, the self-cleavage was 0.6.

Turning to C17U A18G U25C U26C U51C A57U, the self-cleavage turned out to be 0.07.

A18G A21G U69C U72C U76A: the self-cleavage amounted to 1.1.

With A18C A20G U41C A47G, the self-cleavage is 0.39.

As to A18G A20G A35G C38U U48A A77G U80A, the self-cleavage is 0.42.

As to A18C U26C A28G U60C U69A U72C, the self-cleavage stood at 0.

On to A18G A20G U76C, for which the self-cleavage turned out to be 0.59.

Turning to A18G A21G A45U A57G A77G, the self-cleavage was determined as 0.08.

For C17U U43G C79U, the self-cleavage is 0.13.

On to G16U U25C A45G U66C, for which the self-cleavage turned out to be 0.07.

On to A18C U26A U67A U76C U80A, for which the self-cleavage worked out at 0.09.

With C17U G36U C37U U49C A75G, the self-cleavage stood at 0.04.

As for A18C U26C G33A U48C U49C C50U C62U, the self-cleavage was 0.16.

For the variant G16A U31C U54C U74C U78A, the self-cleavage was determined as 0.36.

Turning to C17U A64U A65G A77U, the self-cleavage was 0.13.

For C17G U43C U51C U72A, the self-cleavage was 0.18.

As for A18G A20G U43A A47G C62U, the self-cleavage is 0.07.

Regarding C17U U49A U72C U74A, the self-cleavage turned out to be 0.4.
